# Assay results as given in PubChem BioAssay AID886 (National Center for Advancing Translational Sciences (NCATS), 2007).
# Out of some 73,000 compounds screened, about 2,500 (3.4%) were called active. Inconclusive means that the source gave no clear call. Such entries were picked first, then a sample of the others. Calls follow the shape of the dose curve; as a rule, active = well fitted inhibition curve with a large enough effect; inconclusive = small, poorly fitted or top-dose-only effect; inactive = no such curve, though single readings can be large or run the other way. Potencies beside an inconclusive call are fits to weak or partial responses and may not hold up.
# Biological target: 3-hydroxyacyl-CoA dehydrogenase type-2 (Homo sapiens) (UniProt Q99714)
# Chain of UniProt Q99714 (Q99714 whole entry, looked up): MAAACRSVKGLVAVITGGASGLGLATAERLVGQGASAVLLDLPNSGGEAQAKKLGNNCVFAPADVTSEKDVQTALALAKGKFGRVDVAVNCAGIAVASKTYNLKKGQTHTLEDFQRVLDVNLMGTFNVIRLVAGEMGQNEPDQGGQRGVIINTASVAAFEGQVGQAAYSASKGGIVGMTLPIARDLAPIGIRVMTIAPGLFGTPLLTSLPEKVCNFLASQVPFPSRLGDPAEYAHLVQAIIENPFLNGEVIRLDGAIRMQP
# Chain of UniProt Q99714 (Q99714 whole entry, looked up): as above
# Assay: qHTS Assay for Inhibitors of HADH2 (Hydroxyacyl-Coenzyme A Dehydrogenase, Type II); also: nearly all actives have a fitted effect of over 60% in size
# Settings: recombinant HADH2, NADH fluorescence, beta-hydroxybutyryl-CoA; activity change, negative = inhibition: at 57.1 µM (top of the series)
# In short: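 NADH fluorescence (ex 360/em 450 nm) read every 30 s for 4 min; activity taken as last-minus-first time point difference. Enzyme 20 nM, NAD+ 1 mM, beta-hydroxybutyryl-CoA 90 uM, pH 9.0 Tris buffer.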
# % is scaled to controls: 0 for no effect and ±100 for the full control effect; potency is read from the fitted curve at half-maximal effect; tags tell the direction and shape of the fitted curve.
SMILES,Potency,"activity change, negative = inhibition"
CCOC(=O)Nc1ccc2c(c1)N(C(=O)N1CCN(C)CC1)c1ccccc1S2,inactive,
C[C@]1(C2CCCC2)Cc2cc(OCC(=O)O)c(Cl)c(Cl)c2C1=O,"inconclusive: 12.6 µM [inhibitor, partial curve]",
Cc1c2ccccc2c(CSC(=N)N)c2ccccc12,"inconclusive: 2 µM [inhibitor, full curve]",
CCc1n[nH]c2c1C(=O)CC(C)(C)C2,"inconclusive: 15.8 µM [inhibitor, partial curve]",
Cc1ccc(CN2CCN(C(=O)C3CCCO3)CC2)cc1 (centres undefined),inactive,
O=C(NCc1ccccn1)c1cc2ccccc2oc1=O,inactive,
COc1c(O)ccc2c1CN1CCc3cc4c(cc3[C@@H]1C2)OCO4,active: 3.16 µM,
COc1cccc(Nc2nc(-c3sc(N)nc3C)cs2)c1,active: 7.94 µM,
O=C(O)CN1CCOCCOCCN(CC(=O)O)CCOCCOCC1,"inconclusive: 39.8 µM [inhibitor, single point]",
CCOC(=O)C1C(=O)CC(C)(O)C(C(=O)OCC)C1c1ccccc1OC (centres undefined),inactive,
CCOC(=O)C1=C(c2ccccc2)Nc2ncnn2C1c1cc(OC)cc(OC)c1OC (centres undefined),"inconclusive: 10 µM [inhibitor, partial curve]",
c1ccc(-c2noc(-c3cccc4ccccc34)n2)cc1,"inconclusive: 39.8 µM [inhibitor, single point]",
CCCCN(C)C(=O)CS(=O)(=O)Cc1nc(-c2cccc(OC)c2)oc1C,inactive,
COC(=O)c1ccccc1NC(=O)c1cc2sccc2n1C,active: 25.1 µM,
CN(c1ccc(F)cc1)S(=O)(=O)c1ccc2[nH]cc(C(=O)O)c(=O)c2c1,"inconclusive: 31.6 µM [inhibitor, single point]",
Cc1ccc2cc(-c3noc(C4CCCO4)n3)c(=O)[nH]c2c1 (centres undefined),"inconclusive: 39.8 µM [inhibitor, single point]",
CCOC(=O)CSC1=C(C#N)C(c2ccccc2OCC)C(C(=O)OCC)C(=O)N1 (centres undefined),"inconclusive: 39.8 µM [inhibitor, single point]",
Cc1c(NC(=O)c2cc(-c3ccco3)on2)c(=O)n(-c2ccccc2)n1C,inactive,
O=C(Nc1ccc2oc(-c3ccncc3)nc2c1)c1cccs1,"inconclusive: 31.6 µM [inhibitor, single point]",
COCCn1c(=O)c(C)nc2cnc(N(C)C)nc21,inactive,
COc1cc(C2c3sc(=O)[nH]c3SC3C4CCC(C4)C23)ccc1O (centres undefined),active: 0.398 µM,
c1csc(-c2ccc3ccccc3n2)c1,inactive,
O=S(=O)(Nc1ccc2nc(-c3ccc(Br)o3)[nH]c2c1)c1ccccc1,"inconclusive: 20 µM [inhibitor, partial curve]",
C=CCn1c(-c2cccc(Cl)c2)n[nH]c1=S,"inconclusive: 39.8 µM [inhibitor, single point]",
Cc1ccn(CC(=O)O)c(=O)c1,inactive,

SMILES,Potency,"activity change, negative = inhibition"
C[N+]1(C)CCc2cc3c(cc2[C@@H]1[C@@H]1C(=O)Oc2c1ccc1c2OCO1)OCO3,inactive,
CCOC(=O)c1ccccc1NC(=O)c1cncc(Br)c1,"inconclusive: 39.8 µM [inhibitor, single point]",
Cc1cc(NC(=O)c2cccnc2)ccc1NC(=O)c1ccco1,inactive,
O=S(=O)(Nc1nc2ccccc2nc1Nc1ccc2c(c1)OCCO2)c1cccs1,"inconclusive: 25.1 µM [inhibitor, single point]",
Cc1ccc(CNC(=O)c2ccc(Cn3nc(C)c(Cl)c3C)o2)cc1,"inconclusive: 31.6 µM [inhibitor, single point]",
CCOc1ccccc1NC(=O)CSc1c(C)n[nH]c1C,"inconclusive: 31.6 µM [inhibitor, single point]",
COc1cccc2c(=O)c(C(=O)NCc3cccs3)c[nH]c12,"inconclusive: 39.8 µM [inhibitor, single point]",
O=C1C2=CC[C@@H]3C(=O)N(c4ccc(F)cc4F)C(=O)[C@H]3[C@H]2[C@H](O)[C@H]2O[C@H]12,,inactive: -8.2% [at 11.4 µM]
COc1ccc2[nH]cc(CCNc3cc(-c4cccnc4)ncn3)c2c1,"inconclusive: 39.8 µM [inhibitor, single point]",
C=CS(=O)(=O)c1ccc(Oc2ccc(S(=O)(=O)C=C)cc2)cc1,active: 2 µM,
COc1ccc2nc(SCC(=O)NC(C)C)[nH]c2c1,inactive,
O=S(=O)(c1ccc2oc(-c3ccncc3)nc2c1)c1ccc2oc(-c3ccncc3)nc2c1,inactive,
CC1(C)CC(=O)c2cc(OCC(=O)O)ccc2O1,"inconclusive: 25.1 µM [inhibitor, partial curve]",
Cc1ccccc1-c1cc(NCc2ccccc2)ncn1,inactive,
CCC1CCCCN1C(=O)CSc1nnc(-c2cccs2)o1 (centres undefined),"inconclusive: 39.8 µM [inhibitor, single point]",
COc1ccc2[nH]c(C)c(CCN3C(=O)C4C5C=CC(C5)C4C3=O)c2c1 (centres undefined),inactive,
CC(C)OCCCNC(=O)c1sc(=S)n(C)c1N,"inconclusive: 31.6 µM [inhibitor, single point]",
Cc1ccc2nc3c(c(N)c2c1)CCN3c1ccccc1,active: 31.6 µM,
COc1cc2c(cc1NC(=O)CN1CCN(S(=O)(=O)c3ccc(F)cc3)CC1)oc1ccccc12,"inconclusive: 25.1 µM [inhibitor, single point]",
COc1cc(C(=O)N2CCN(C(=O)COc3ccc4ccccc4c3)CC2)cc(OC)c1OC,"inconclusive: 39.8 µM [inhibitor, single point]",
c1ccc2nc3c(nc2c1)sc1nc2ccccc2n13,"inconclusive: 31.6 µM [inhibitor, single point]",
COc1cc2cc3c4c(cc(OC)c(OC)c4c2cc1OC)CCN3C,active: 31.6 µM,
Cc1cnc(CNc2nc(-c3ccccc3C)nc3ccccc23)cn1,"inconclusive: 31.6 µM [inhibitor, single point]",
COC(=O)C1=[N+]([O-])OC(C(=O)OC)C1c1c[nH]c2ccccc12 (centres undefined),"inconclusive: 10 µM [inhibitor, partial curve]",
